This note sets out measurements from PMC4336329 (PLoS ONE, 2015).

About 2,200 (0.71%) of roughly 310,000 compounds showed an effect of 50% or more. The effect is printed as a negative number. The list shows a part of the results.

For this assay, the target named is human ether-à-go-go-related gene (hERG) potassium channel (human, UniProt Q12809). The experiment in a line: primary screen, population patch clamp on CHO cells stably expressing hERG.
human ether-à-go-go-related gene (hERG) potassium channel, sequence (Q12809 whole entry, looked up): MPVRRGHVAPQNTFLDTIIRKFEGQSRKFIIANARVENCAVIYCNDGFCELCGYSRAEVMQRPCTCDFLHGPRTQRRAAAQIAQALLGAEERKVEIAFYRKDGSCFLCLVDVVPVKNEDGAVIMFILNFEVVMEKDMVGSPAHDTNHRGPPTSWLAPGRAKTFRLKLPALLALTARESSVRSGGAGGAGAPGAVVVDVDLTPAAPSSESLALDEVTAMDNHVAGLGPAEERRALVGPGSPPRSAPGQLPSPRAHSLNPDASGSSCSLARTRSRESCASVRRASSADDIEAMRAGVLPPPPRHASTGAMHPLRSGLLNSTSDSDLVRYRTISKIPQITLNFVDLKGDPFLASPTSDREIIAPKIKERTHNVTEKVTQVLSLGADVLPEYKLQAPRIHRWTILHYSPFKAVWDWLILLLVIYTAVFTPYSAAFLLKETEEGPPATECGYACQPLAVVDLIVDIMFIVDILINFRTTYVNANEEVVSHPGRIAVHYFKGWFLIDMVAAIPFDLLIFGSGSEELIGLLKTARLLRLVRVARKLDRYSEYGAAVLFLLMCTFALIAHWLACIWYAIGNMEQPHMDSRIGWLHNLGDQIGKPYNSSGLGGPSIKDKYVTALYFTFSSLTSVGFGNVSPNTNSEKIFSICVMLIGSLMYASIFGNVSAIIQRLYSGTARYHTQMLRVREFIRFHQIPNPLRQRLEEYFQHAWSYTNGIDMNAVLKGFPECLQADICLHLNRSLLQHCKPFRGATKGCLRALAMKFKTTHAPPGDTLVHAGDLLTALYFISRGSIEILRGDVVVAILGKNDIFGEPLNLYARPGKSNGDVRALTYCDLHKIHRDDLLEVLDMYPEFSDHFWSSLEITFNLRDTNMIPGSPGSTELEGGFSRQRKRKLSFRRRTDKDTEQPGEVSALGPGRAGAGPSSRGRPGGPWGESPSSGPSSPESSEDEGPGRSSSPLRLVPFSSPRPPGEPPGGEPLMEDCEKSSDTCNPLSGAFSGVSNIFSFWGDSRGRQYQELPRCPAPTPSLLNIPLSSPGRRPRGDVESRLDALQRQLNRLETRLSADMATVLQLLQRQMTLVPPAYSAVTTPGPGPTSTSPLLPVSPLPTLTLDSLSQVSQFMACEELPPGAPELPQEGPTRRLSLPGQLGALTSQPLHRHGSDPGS
Regarding `CC(=O)NC1CC2CCCC(C1)N2C(=O)Nc1ccc(Cl)c(C(F)(F)F)c1` (centres unmarked), the “hERG current change (%, negative = inhibition) at 1uM” value was determined as 7.96%.
Regarding `CCOC(=O)C(C)Oc1ccc2c(-c3cccc([N+](=O)[O-])c3)cc(=O)oc2c1` (centres unmarked), the “hERG current change (%, negative = inhibition) at 1uM” value is -35.6%.
As to `COc1cc(OC)c(C(=O)OCC(=O)N2CCOCC2)cc1OC`, the “hERG current change (%, negative = inhibition) at 1uM” value was 11%.
With `O=C(CN1CCN(c2ccc(F)cc2)CC1)Nc1ccccc1`, the “hERG current change (%, negative = inhibition) at 1uM” value turned out to be 10.9%.
Consider `COCCCNC(=O)CCC(=O)NNc1nc2ccccc2c2nc(-c3ccccc3)nn12`, for which the “hERG current change (%, negative = inhibition) at 1uM” value is recorded as -15.2%.
Take `CN(CC(=O)Nc1cccc(F)c1)C(=O)c1ccccc1OCC(=O)Nc1cccc(C(F)(F)F)c1`: the “hERG current change (%, negative = inhibition) at 1uM” value was 13.6%.
Next, `O=C(NCc1ccccc1)C(c1cccs1)N(C(=O)c1csnn1)C1CC1` (centres unmarked): -3.21%; `CCC(C(=O)OCC(=O)N1C(C)CCCC1C)c1ccccc1` (centres unmarked): 3.49%; `CCC(CC)C(=O)Nc1cccc(C(=O)c2ccccc2)c1`: 4.34%.
For `CCCCc1c(O)nc(SCC(=O)Nc2cccc3ccccc23)n(-c2ccccc2OC)c1=O`, the “hERG current change (%, negative = inhibition) at 1uM” value is 15.8%.
As for `CC(C)CC(NC(=O)C1CCC(C)CC1)C(=O)Nc1ccccc1F` (centres unmarked), the figure is 9.91%.
For `C=CCOc1ccc(Br)cc1/C=N/O`, the “hERG current change (%, negative = inhibition) at 1uM” value is 12.4%.
On to `Cc1cccn2c(=O)c3cc(C(=O)NC(C)C)c(=N)n(Cc4ccncc4)c3nc12`, for which the “hERG current change (%, negative = inhibition) at 1uM” value is reported as -67.2%.
As for `COc1ccc(C2=NS(=O)(=O)N(C)C(C(=O)NCc3ccc4c(c3)OCO4)=C2)cc1OC`, the figure is -14.3%; as for `O=C(CCC(=O)N1CC2C[C@@H](C1)Cn1c2cccc1=O)NCCc1ccccc1`, -4.99%; as for `CCCCn1c(=N)n(CC(O)COc2ccccc2)c2ccccc21` (centres unmarked), -68%.
Consider `COc1cccc(NC(=O)COC(=O)c2ccccc2SCC(=O)N2CCCC2)c1`, for which the “hERG current change (%, negative = inhibition) at 1uM” value is listed as 23.2%.
`Cc1cc(=O)n2[nH]c(-c3ccccc3Cl)cc2n1`: the “hERG current change (%, negative = inhibition) at 1uM” value was 11.3%.
Take `O=Cc1nc(-c2ccc(Cl)cc2)n2ccccc12`: the “hERG current change (%, negative = inhibition) at 1uM” value is given as -2.33%.
For `O=C(NCc1ccccc1)C1CCCN(S(=O)(=O)c2cccc3nonc23)C1` (centres unmarked), the “hERG current change (%, negative = inhibition) at 1uM” value was determined as 6.52%.
Consider `O=C(CCC1CCCN(C(=O)c2ccncc2)C1)NCc1ccc(F)c(F)c1` (centres unmarked), for which the “hERG current change (%, negative = inhibition) at 1uM” value is 2.09%.
As for `O=C(NCc1ccccc1)c1cccc(COc2ccccc2Cl)c1`, the “hERG current change (%, negative = inhibition) at 1uM” value was found to be 17.7%.
Next, `COc1cccc(NC(=O)c2oc3ccccc3c2NC(=O)c2ccc3c(c2)OCO3)c1`: -0.218%; `Cn1ncc(Br)c1NC(=O)CSc1ccc(Cl)cc1`: 11.8%; `Cc1ccc(OCc2cc(C(=O)N3CCC(c4ccccc4Cl)C3)no2)cc1C` (centres unmarked): 6.9%.
Next, `O=S(=O)(c1cccc(S(=O)(=O)N2CCN(c3ncccn3)CC2)c1)N1CCOCC1`: 1.31%; `Cc1c(Cl)cccc1-n1c(SCC(=O)N(C)Cc2ccccc2)nnc1-c1ccncc1`: -16.2%; `O=C(CN1CCCCC1)N/N=C/c1cccc(Cl)c1`: -1.53%.
`Cc1ccc(C(=O)N(CC(=O)Nc2ccc(Cl)c(Cl)c2)Cc2ccco2)cc1`: the “hERG current change (%, negative = inhibition) at 1uM” value is listed as 13.7%.
For `O=C(COc1ccc([N+](=O)[O-])cc1)N1CCc2ccccc2C1`, the “hERG current change (%, negative = inhibition) at 1uM” value is on record as -15%.
Turning to `O=C(CN1C(=O)CSc2ncccc21)NCCN1CCOCC1`, the “hERG current change (%, negative = inhibition) at 1uM” value is given as 1.38%.
For `COc1ccc(NC(=S)N2CCC(Cc3ccccc3)CC2)cc1`, the “hERG current change (%, negative = inhibition) at 1uM” value is on record as 2.76%.
In the case of `Cn1ncc([N+](=O)[O-])c1C(=O)Nc1nccs1`, the “hERG current change (%, negative = inhibition) at 1uM” value came out at 14.2%.
Consider `COc1ccccc1NC(=S)Nc1cccc2cnccc12`, for which the “hERG current change (%, negative = inhibition) at 1uM” value is given as 3.4%.
Turning to `CC(=O)Nc1ccc(N2CCOCC2)c(Cl)c1`, the “hERG current change (%, negative = inhibition) at 1uM” value is recorded as 5.27%.
As to `CN(c1ccccc1)S(=O)(=O)c1cccc(NS(=O)(=O)c2cccc(C(=O)O)c2)c1`, the “hERG current change (%, negative = inhibition) at 1uM” value is 7.26%.
For `COc1cccc(/C=N/Nc2snc(SC)c2C#N)c1O`, the “hERG current change (%, negative = inhibition) at 1uM” value worked out at 9.3%.
Regarding `COc1cc(OC)cc(C(=O)N[C@H](C(=O)OCC(=O)Nc2ccc(C(C)C)cc2)C(C)C)c1`, the “hERG current change (%, negative = inhibition) at 1uM” value was 9.37%.
Regarding `CN(C)CCCn1c(N)c(S(=O)(=O)c2ccccc2)c2nc3ccccc3nc21`, the “hERG current change (%, negative = inhibition) at 1uM” value is recorded as -12.3%.
For the compound `Cc1cc(NC(=O)CS(=O)(=O)c2cn(Cc3ccccc3Cl)c3ccccc23)no1`, the “hERG current change (%, negative = inhibition) at 1uM” value is given as 2.27%.
As for `CC(=O)c1cc2c(cc1NC(=O)CN1Cc3ccccc3C1=O)OCO2`, the “hERG current change (%, negative = inhibition) at 1uM” value stood at 4.59%.
On to `CSCCC(NC(=O)c1ccco1)C(=O)OCc1cc([N+](=O)[O-])cc2c1OCOC2` (centres unmarked), for which the “hERG current change (%, negative = inhibition) at 1uM” value is given as 6.95%.
As to `CC1CCCN(S(=O)(=O)Cc2ccc(Cl)cc2)C1` (centres unmarked), the “hERG current change (%, negative = inhibition) at 1uM” value is given as 6.3%.
As to `O=C(NCc1n[nH]c(=S)n1-c1ccc(Cl)c(Cl)c1)c1ccc(S(=O)(=O)N2CCCCC2)cc1`, the “hERG current change (%, negative = inhibition) at 1uM” value is recorded as 12.9%.
For `COc1cccc(CN2CCNC(=O)C2CC(=O)N(C)Cc2cnccn2)c1OC` (centres unmarked), the “hERG current change (%, negative = inhibition) at 1uM” value is on record as 17.7%.
For the compound `O=C(COc1ccc(Cl)cc1)NCCNC(=O)c1cnccn1`, the “hERG current change (%, negative = inhibition) at 1uM” value is listed as 7.73%.
In the case of `COC(=O)c1ccc(NC(=O)CN(c2ccc3c(c2)OCO3)S(C)(=O)=O)cc1`, the “hERG current change (%, negative = inhibition) at 1uM” value came out at 12.5%.
Turning to `Cc1ccc(-c2ccc(NC(=O)C3C4C=CC(C4)C3C(=O)O)cc2)o1` (centres unmarked), the “hERG current change (%, negative = inhibition) at 1uM” value is recorded as 14.5%.
As to `CC(C)n1nc(Cc2cccc3ccccc23)c(C#N)c1N`, the “hERG current change (%, negative = inhibition) at 1uM” value is on record as -0.0121%.
As for `O=C1CCCN2N=C(SCC(=O)Nc3cccc(F)c3)SC2=N1`, the figure is -1.24%; as for `COc1ccc(NC(=O)c2ccc(NC(=O)C3CC3)cc2)cc1`, -0.0678%.
Turning to `CC(=O)Nc1ccc(SCC(=O)Nc2cc(C)on2)cc1`, the “hERG current change (%, negative = inhibition) at 1uM” value was -8.3%.
Take `Cc1c(C(=O)N2CCCC2)c(S(=O)(=O)Nc2ccccc2)c(C)n1C`: the “hERG current change (%, negative = inhibition) at 1uM” value is listed as 17%.
Take `O=C(NCC1CCCCC1)c1cccnc1`: the “hERG current change (%, negative = inhibition) at 1uM” value stood at 16.5%.
As for `COc1ccc(C2=CC(=O)C[C@H](c3ccc(OC)cc3)C2)cc1`, the figure is 0.975%; as for `CCC(C)N(C(=O)CCC(=O)Nc1cc(C)on1)C(C(=O)NC(C)(C)C)c1ccccc1Cl` (centres unmarked), 10.5%; as for `CCOC(=O)CN(C)C(=O)CCc1nnc(-c2ccsc2)o1`, 11.1%.
For `COc1ccc(CN(CC(=O)NC2CCCCC2)C(=O)CCCC(=O)Nc2ccccn2)cc1`, the “hERG current change (%, negative = inhibition) at 1uM” value is 9.4%.
For `COc1ccc2oc(C(=O)OCC(=O)N3CCCC3=O)c(C)c2c1`, the “hERG current change (%, negative = inhibition) at 1uM” value was 16.1%.
`NC(=O)c1ccccc1N=Cc1ccc2ccccc2c1`: the “hERG current change (%, negative = inhibition) at 1uM” value turned out to be 14.2%.
Take `CCOC(=O)c1c(NC(=O)CCC(=O)NCc2ccco2)sc2c1CCCC2`: the “hERG current change (%, negative = inhibition) at 1uM” value was 13%.
Regarding `O=S(=O)(c1cc(Cl)ccc1Br)N1CCCCC1`, the “hERG current change (%, negative = inhibition) at 1uM” value is recorded as -2.73%.
With `Cc1c(C)c2ccc(OC(C)C(=O)N3C[C@H]4C[C@@H](C3)c3cccc(=O)n3C4)c(C)c2oc1=O` (some centres unmarked), the “hERG current change (%, negative = inhibition) at 1uM” value worked out at 20.9%.
As for `COC(=O)C1=C(N)OC2=C(C(=O)CC(C)(C)C2)C1c1ccccc1OCC#N` (centres unmarked), the “hERG current change (%, negative = inhibition) at 1uM” value was 10.6%.
As to `Cc1ccc(S(=O)(=O)N2CCC(C(=O)NNC(=O)c3ccncc3)CC2)cc1`, the “hERG current change (%, negative = inhibition) at 1uM” value came to 12%.
On to `CCCNC(=O)COc1nc2ccccc2nc1N1CCOCC1`, for which the “hERG current change (%, negative = inhibition) at 1uM” value came to 9.19%.
For `O=C(Nc1ccccc1Oc1cccnc1)C1CCCN(Cc2cccc(Cl)c2)C1` (centres unmarked), the “hERG current change (%, negative = inhibition) at 1uM” value worked out at 6.89%.
Next, `COC(=O)[C@@]1(Cc2ccc(OC)cc2)[C@H]2c3cc(C(=O)N4CCCC4)n(CCO)c3C[C@H]2CN1C(=O)c1ccccc1`: -0.587%; `CC(C(=O)NCc1ccccc1)N(Cc1ccccc1Cl)C(=O)c1snc(C(N)=O)c1N` (centres unmarked): 14.8%.
Next, `C/C(O)=C(/C=NCC(=O)O)C(=O)Nc1nccs1`: 2.61%; `O=C(CN1CCN(Cc2ccccc2Cl)CC1)N/N=C/C=C/c1ccccc1[N+](=O)[O-]`: -14.7%.
With `Cc1nn2c(N3CCCC3)cc(C(C)C)nc2c1-c1ccccc1`, the “hERG current change (%, negative = inhibition) at 1uM” value was found to be 2.7%.
`COC(=O)c1ccccc1SC1CC(=O)N(c2cccc(C)c2)C1=O` (centres unmarked): the “hERG current change (%, negative = inhibition) at 1uM” value is 18.2%.
As to `COc1ccc(S(=O)(=O)Nc2ccc3c(c2)CCC3)cc1`, the “hERG current change (%, negative = inhibition) at 1uM” value was found to be 16.2%.
In the case of `C[C@@H](C(=O)Nc1ccc2ccccc2c1)[C@H]1C[C@]1(C)[C@H](NC(=O)OCc1ccccc1)c1ccccc1`, the “hERG current change (%, negative = inhibition) at 1uM” value came to 12.6%.
Consider `CC1(C)CC(=O)C=C(NCCN2CCN(C(=S)Nc3ccccc3)CC2)C1`, for which the “hERG current change (%, negative = inhibition) at 1uM” value is 7.14%.
Next, `CCOc1cc(NC(=S)NCC(C)C)c(OCC)cc1NC(=O)c1cccs1`: 8.32%; `Cc1ccc(NS(=O)(=O)c2c(C)[nH]c(=O)[nH]c2=O)c(Br)c1`: 13.7%.
For `Cc1ccc(C(=O)NCC(=O)OCc2nnc(-c3ccccc3)o2)cc1`, the “hERG current change (%, negative = inhibition) at 1uM” value worked out at 2.34%.
Take `C=CCNC(=O)c1c(CSc2ccc(F)cc2)noc1C(=O)NCCC`: the “hERG current change (%, negative = inhibition) at 1uM” value is given as 11.8%.
As to `Cc1c(CCC(=O)N[C@@H](C)C(=O)O)c(=O)oc2c(C)c3oc4c(c3cc12)CCCC4`, the “hERG current change (%, negative = inhibition) at 1uM” value was 2.95%.
As for `Cc1cnc(NC(=O)C2CC=CCC2)s1` (centres unmarked), the figure is 20.5%; as for `CCOC(=O)/C(C(C)=O)=C1/OC(=O)c2ccccc21`, 9.8%; as for `O=C(NCc1ccccc1)C1=C[C@H](c2coc3ccccc3c2=O)C[C@H](OCc2ccc(CO)cc2)O1`, -1.9%.
With `COc1ccc(S(=O)(=O)/N=C2/C=CC(=O)C(C)=C2C)cc1`, the “hERG current change (%, negative = inhibition) at 1uM” value is listed as -7.77%.
As for `COCCNC(=O)C(OC(=O)c1cccs1)c1ccc(F)cc1` (centres unmarked), the “hERG current change (%, negative = inhibition) at 1uM” value was -21.4%.
